Results on four compounds are retold here after PubChem BioAssay (NCI).

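Step 1: Grow cells in 96-well plates. Step 2: Expose to compound for 48 hours at 5 concentrations. Step 3: Interpolate endpoints linearly; if unreached, use highest concentration. GI50 = concentration required for 50% inhibition of growth. Definition used: TGI = concentration required for complete inhibition of growth.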 Some results are limits rather than exact numbers.

In the assay the test system is NCI-H322M lung. Nature of the assay: inhibition of tumour cell growth, NCI panel, 48 h.

With `COc1cc2c(cc1OC)C(Sc1ccc(F)cc1)c1c(nc(N)c(C#N)c1N)O2` (stereo not drawn), the GI50 was 1430 nM and the TGI worked out at 2750 nM.
For `CCCn1cnc2c(c1=N)C(c1ccc(OC)cc1)c1sc3c(CC)cccc3c1O2` (stereo not drawn) the same measures were 2930 nM and > 49200 nM.
In the case of `O=C(NNc1nc2cc(F)ccc2n2c(CN3CC4(COC4)C3)ccc12)c1cnccn1`, the GI50 is 475 nM and the TGI is 49800 nM.
For `CCn1c2ccccc2c2cc(-n3nncc3-c3ccccc3)ccc21` the same measures were 603 nM and > 100000 nM.
